# According to PubChem BioAssay AID760 (NMMLSC, 2007):
# Screen size: about 190,000 compounds; about 360 (0.19%) were called active. Inconclusive results, whose numbers are uncertain, are shown with a selection of clear calls.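 Rule for the calls: active = GTP binding activity at least 20 points away from 100%, either lowered or raised; inconclusive = signal likely due to the compound's own green fluorescence; inactive = the rest.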
# Molecular target: Ras-related protein Rab-2A (Canis lupus familiaris) (UniProt P61105)
# Test: Rab2 wt fluorescent GTP binding changes, either direction – biochemical, dog, bead-based flow cytometry, multiplex, primary screen (AID 760);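 note: 0% = beads with excess unlabeled GTP and 100% = no-compound control corrected for plate trend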
# Conditions: GST-Rab2 wt beads, Bodipy-GTP binding, at 10 µM
row,SMILES,GTP binding activity
1,COc1cc(-c2nnc(CSc3nnc(Nc4ccc(Oc5ccccc5)cc4)s3)o2)cc(OC)c1OC,inactive: 91%
2,Clc1ccc(-c2nnc3n2CCCS3)cc1,inconclusive: 97%
3,COc1ccc(C)cc1NC(=O)c1ccoc1C,inconclusive: 103%
4,Cc1ccc(C(=O)Nc2onc(C)c2C#N)cc1,inactive: 99%
5,O=C(O)/C=C/C(=O)Nc1cccnc1,active: 31%
6,Cc1ccc(/C=C/C(=O)NCc2cccs2)c(C)c1,inconclusive: 91%
7,COc1ccc(Nc2nc(-c3c(C)nc4ncccn34)cs2)cc1,active: 76%
8,Nc1nc(SCC(=O)Nc2cccnc2Cl)n[nH]1,inconclusive: 84%
9,Cc1ccc(CSc2ncccc2C(=O)O)cc1,inconclusive: 125%
10,CC(C)C(NC(=O)c1ccccc1)C(=O)NCCc1ccccc1 (stereo not given),inactive: 97%
11,O=C1N=C2SCCN2/C1=C\c1c(Cl)cccc1Cl,inconclusive: 102%
12,Cc1ccc(C2=NN(C(=O)COc3ncnc4ccccc34)C(c3ccco3)C2)cc1 (stereo not given),inactive: 93%
13,COc1ccc(NC(=O)CN2CCc3ccccc3C2)cc1S(=O)(=O)N1CCOCC1,inconclusive: 102%
14,c1ccc(CCNc2ccnc3cc4ccccc4cc23)cc1,inconclusive: 91%
15,CC(=O)c1cccc(NC(=O)/C(=C\c2cccnc2)NC(=O)c2ccco2)c1,inactive: 97%
16,COc1ccc(Cl)cc1S(=O)(=O)Oc1ccc(NC(C)=O)cc1,inactive: 97%
17,Cc1ccc2cccc(NC(=S)NC(=O)c3c(Br)cnn3C)c2n1,inconclusive: 101%
18,Cc1cccc(C(=O)NC2C(=O)NNC2c2ccc(Cl)cc2)c1 (stereo not given),inconclusive: 89%
19,CN(c1ccc(C(=O)O)cc1)S(=O)(=O)c1ccc(Cl)cc1,inconclusive: 97%
20,CCOC(=O)Cc1cnc(NC(=O)CSc2nc(N)cc(N)n2)s1,inconclusive: 83%
21,COc1ccc(-n2nnnc2SCC(=O)NC(=O)Nc2ccc3c(c2)OCCO3)cc1,inconclusive: 91%
22,Cc1ccc(CSc2nc3c(c(N(C)C)n2)CCCC3)cc1,inconclusive: 93%
23,Cc1cc(Cl)c(S(=O)(=O)N2CCN(c3cccc(C)c3C)CC2)cc1OCC(N)=O,inconclusive: 98%
24,COc1ccc(-c2nnc3sc(COc4ccc(C)cc4)nn23)cc1,inconclusive: 91%

row,SMILES,GTP binding activity
1,Cc1ccc(/C=N\NC(=O)c2ccc(Cn3cc(Br)c([N+](=O)[O-])n3)o2)o1,inconclusive: 93%
2,CN(C)CCNC(=S)Nc1ccc(Br)cc1,inconclusive: 104%
3,N#Cc1c(-c2cccc(Br)c2)cc(-c2ccco2)[nH]c1=O,inactive: 81%
4,Cc1nn(-c2ccccc2)c(C)c1C(=O)OCC(=O)NCc1ccco1,inconclusive: 104%
5,O=C(NCC1CCCO1)/C(=C\c1ccco1)NC(=O)c1ccc(Cl)cc1 (stereo not given),inconclusive: 94%
6,Clc1ccc(CSc2nnc(-c3ccc4c(c3)OCO4)o2)cc1,inconclusive: 96%
7,CC1(C)CC(=O)C=C(N=CC2=C(O)CC(C)(C)CC2=O)C1,inconclusive: 88%
8,NS(=O)(=O)c1ccc(N2N=C(c3ccccc3)CC2c2ccc(F)cc2)cc1 (stereo not given),inactive: 94%
9,O=C(Nc1cccs1)OCCN1CCN(Cc2ccccc2)CCC1=O,inactive: 100%
10,COc1ccc(NC(=O)c2ccco2)cc1NC(=O)c1cccs1,inconclusive: 101%
11,O=[N+]([O-])c1cccc(C2NCC(c3ccccc3Cl)c3c2[nH]c2ccccc32)c1 (stereo not given),inconclusive: 97%
12,Nc1nc(CN2CCN(c3ccccc3F)CC2)nc(N2CCCc3ccccc32)n1,inactive: 83%
13,O=C(N/N=C/c1cn(-c2cccs2)nc1-c1ccccc1)c1ccccc1Cl,inconclusive: 98%
14,CCOc1cc(/C=C2\SC(=O)N=C2N)ccc1O,inactive: 80%
15,Cc1cc(-n2c(SCc3ccccc3F)nc3n[nH]c(C)c3c2=N)ccc1Cl,inconclusive: 93%
16,COc1cc(N2CCCC2)c(OC)cc1/C=c1/sc2nc3ccccc3n2c1=O,inconclusive: 412%
17,CCCCN1C(=O)/C(=C/C=C2\N(C)c3ccccc3C2(C)C)SC1=S,inconclusive: 194%
18,COc1cccc(NC(=O)c2oc3ccc(S(=O)(=O)N4CCOCC4)cc3c2C)c1,inconclusive: 94%
19,Cc1nc2cc(C(=O)NCc3ccc4c(c3)OCO4)ccc2n1-c1ccc(Br)cc1,inconclusive: 73%
20,Nc1cc(Cl)ccc1N1CCCCCC1,inactive: 96%
21,CCCc1n(CC)c2ccccc2[n+]1CC(O)COC1CCCCC1 (stereo not given),inactive: 99%
22,O=C(c1ccc(COc2ccc(F)cc2)o1)n1cccn1,inconclusive: 95%
23,O=C(N/N=C/c1sc(N2CCCCC2)nc1-c1cccs1)C1CC1,inconclusive: 94%
24,Fc1ccccc1Cc1noc(CN2CCN(C/C=C/c3ccccc3)CC2)n1,inactive: 95%

row,SMILES,GTP binding activity
1,COc1ccc(NC(=O)c2cccc(N3C(=O)NC4CC3(C)Oc3ccccc34)c2)cc1 (stereo not given),inconclusive: 103%
2,CCOc1ccc(/C=N/n2c(SC)nnc2-c2ccccc2)cc1OCC,inactive: 96%
3,CN(C)c1nnc(-c2ccc(Cl)cc2)o1,inconclusive: 95%
4,O=C(Nc1ccc(F)cc1)C1=CC(=O)N2CCN=C2S1,inactive: 98%
5,O=C1Oc2ccccc2C(=O)/C1=C/N1CCN(c2ccccc2F)CC1,inconclusive: 91%
6,CCOc1ccc(Cc2n[nH]c(=S)n2Cc2ccccc2)cc1,inactive: 96%
7,CCOC(=O)C(CC)Sc1ccc2nnc(CCNS(=O)(=O)c3ccccc3)n2n1 (stereo not given),inconclusive: 97%
8,Cc1cc(C(=O)NC(=S)Nc2cccc(C(=O)O)c2C)ccc1[N+](=O)[O-],inconclusive: 122%
9,O=c1c2ccccc2nc2c3ccccc3c(NCc3ccco3)nn12,active: 66%
10,CCOC(=O)CNC(=S)n1ncnc1N,inactive: 95%
11,Cc1ccc(CNC(=O)C2=NNC(=O)CC2)cc1,inactive: 100%
12,Cc1ccc2c(c1)cc(C)c1nnc(SCC(=O)NCc3ccco3)n12,inconclusive: 91%
13,CCOc1ccc(-c2cc(N3C(=O)Nc4ccccc4N3O)n[nH]2)cc1,inactive: 94%
14,CCCCn1c(SCC(=O)c2ccccc2)nc2c1c(=O)[nH]c(=O)n2C,active: 36%
15,COc1ccc(/C=N/NC(=O)CCCC(=O)NC2CCCCC2)cc1,inconclusive: 107%
16,O=C(CSc1nccn1Cc1ccccc1)Nc1nccs1,inactive: 103%
17,O=C(O)CCN1C(=O)/C(=C\c2ccc(-c3nc4ccccc4s3)o2)SC1=S,active: 66%
18,CCOP(=O)(OCC)c1nc(-c2ccc(Cl)cc2Cl)oc1N1CCOCC1,inactive: 95%
19,O=C(CN(Cc1ccccc1)S(=O)(=O)c1ccc(S(=O)(=O)N2CCOCC2)cc1)Nc1ccccc1,inactive: 100%
20,CC1CCCCN1CCn1c(=S)[nH]c2cc3c(cc2c1=O)OCO3 (stereo not given),inconclusive: 98%
21,CC(C)(C)SCCNC(=O)CN(c1ccccc1)S(=O)(=O)c1ccc(F)cc1,inactive: 98%
22,O=C1CC(c2ccccc2)CC(O)=C1C=Nc1ccccc1O (stereo not given),inconclusive: 93%
23,O=C1C=C(NCCc2ccccc2)C2(CCCCC2)O1,inconclusive: 97%
24,CC(=O)c1sc(N/N=C2\CC3CC2C(C)C3(C)C)nc1C (stereo not given),inactive: 100%

row,SMILES,GTP binding activity
1,O=C(NCc1ccc(F)cc1)c1cccc(S(=O)(=O)N2CCCC2)c1,inconclusive: 106%
2,COc1ccc(-c2noc(CN3CCN(c4ccccc4F)CC3)n2)cc1OC,inconclusive: 92%
3,COc1ccc(N(C(=O)c2cccc(OC)c2OC)C2C=CS(=O)(=O)C2)cc1 (stereo not given),inconclusive: 103%
4,CC1=C(C(=O)OC(C)C)C(c2ccncc2)n2ncnc2N1 (stereo not given),inconclusive: 91%
5,CC1(C)CC(=O)C2=C(C1)OC(N)=C(C#N)C21CCC2(CC1)OCCO2,inconclusive: 92%
6,COCCn1c(NC(=S)NC(=O)C2CC2)cc(=O)[nH]c1=O,inconclusive: 87%
7,COc1ccc(-c2nnc3ccc(SCC(=O)Nc4cc(C)on4)nn23)cc1OC,inactive: 97%
8,CCCNC(=S)NC1CC2CCC(C1)N2Cc1ccccc1 (stereo not given),inconclusive: 103%
9,CCOc1ccc(Oc2ccccc2NC(=O)CCNC(C)=O)cc1,inactive: 101%
10,COc1ccc(-c2csc(C3=C(O)CN(CCCN4CCCC4=O)C3=N)n2)cc1OC,inconclusive: 83%
11,Cc1ccc(Oc2c(F)c(F)nc(N3CCCC3)c2F)cc1,inconclusive: 89%
12,Cc1cc(NC(=O)C2CC(=O)N(c3ccccc3)C2)no1 (stereo not given),inactive: 101%
13,CCCNC(=O)Cc1cc(=O)[nH]c(=O)[nH]1,inconclusive: 104%
14,COc1ccc(NC(=O)Cn2c(=O)n(CC(=O)NCc3ccco3)c(=O)c3ccccc32)cc1,inconclusive: 103%
15,CCOc1ccccc1C1C(C#N)=C(N)Nc2onc(-c3ccccc3)c21 (stereo not given),inconclusive: 102%
16,CCN(CC)CCNC(=O)CCCCn1c(=S)[nH]c2c([nH]c3ccc(OC)cc32)c1=O,inconclusive: 106%
17,COCCn1c(N)c(C(=O)Nc2sc3c(c2C(=O)OC)CCCC3)c2nc3ccccc3nc21,active: 69%
18,CCCC(C)C(=O)Nc1ccc(S(=O)(=O)Nc2nccs2)cc1 (stereo not given),inactive: 100%
19,COc1cc(/C=C/C(=O)O)cc(S(=O)(=O)NC2CC2)c1OC,inactive: 97%
20,O=C(Cn1ncc(Cl)c(Cl)c1=O)N1CCN(Cc2ccccc2)CC1,inconclusive: 94%
21,CCOC(=O)C1=C(C)NC(SCC(=O)OC)=C(C#N)C1c1ccc(C(=O)OC)cc1 (stereo not given),inconclusive: 88%
22,CC1=C(OC(=O)c2ccccc2)C(C)(C)C(c2ccccc2)OC1=O (stereo not given),inconclusive: 96%
23,CCOc1ccccc1CN1CCN(Cc2csc(C(C)=O)c2)CC1CCO (stereo not given),inactive: 95%
